Data: PubChem BioAssay AID686979 (National Center for Advancing Translational Sciences (NCATS), 2013)
The whole screen tested about 420,000 compounds, of which about 50,000 (12%) were called active. Inconclusive results, whose numbers are uncertain, are shown with a selection of clear calls. The call rests on the fitted dose curve; in most records, active means well fitted inhibition curve with a large enough effect; inconclusive means small, poorly fitted or top-dose-only effect; inactive means flat fitted curve, though single readings scatter. A potency beside an inconclusive call is a rough fit, not a confirmed value.

Test: qHTS for Inhibitors of human tyrosyl-DNA phosphodiesterase 1 (TDP1): qHTS in cells in presence of CPT; further: nearly all actives have a fitted effect of over 55% in size
Settings: chicken DT40 Tdp1-/-;hTDP1 cells + 20 nM CPT, ATP luminescence, 48 h; activity change, negative = growth inhibition: at 46.2 µM (top of the series) unless noted
Outline: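 Chicken DT40 Tdp1-/- cells complemented with human TDP1, 400 cells/well, exposed to compounds plus 20 nM camptothecin for at least 48 h at 37 C; viability read as ATP content by CellTiter-Glo luminescence.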
On the % scale 0 is the no-effect control and ±100 the full control effect; potency means the concentration at half of the fitted maximal effect; tags describe the fitted curve by direction and shape.

SMILES	Potency	activity change, negative = growth inhibition
Cc1ccc(CN2CCCC(C(=O)c3ccc4c(c3)OCO4)C2)cc1C (centres undefined)	inconclusive: 29.1 µM [inhibitor, single point]	
Cc1ccccc1C1=NCC(=S)Nc2ccc(Cl)cc21	inconclusive: 29.1 µM [inhibitor, single point]	
CC(C)(C)n1nnnc1C(CCc1ccccc1)N1CCC2(CC1)C(=O)NCN2c1ccccc1 (centres undefined)	active: 20.6 µM	
CSc1cc(-c2ccccc2)n(Cc2c(Cl)cccc2Cl)c(=O)c1C#N	active: 4.61 µM	
COc1ccc(C(C)=O)cc1CC1(C)C(=O)Nc2ccc(-c3ccccc3OC)cc21 (centres undefined)	inconclusive: 23.1 µM [inhibitor, single point]	
CP(=O)(Nc1ccccc1)C(Cl)(Cl)Cl (centres undefined)	inactive	
CCOC(=O)c1ccc2c(c1)N(CC)C(=O)c1ccccc1S2	inconclusive: 16.4 µM [inhibitor, single point]	
COC(=O)C1=C(c2ccccc2)C[C@@H]2CC[C@H]1N2C(=O)N1CCCCC1	active: 5.8 µM	
CC(C)(C)n1nnnc1C(c1cc2ccccc2o1)N1CCC2(CC1)C(=O)NCN2c1ccccc1 (centres undefined)	inconclusive: 29.1 µM [inhibitor, single point]	
CC(=Nc1ccc2c(c1)CCC2)c1c(O)n(C2CCCCC2)c(=O)[nH]c1=O	inactive	
c1ccc(N2CC3(CCNCC3)C2)nc1	inconclusive: 4.11 µM [inhibitor, partial curve]	
CCc1ccc(NC(=O)c2ccc(F)c(S(=O)(=O)N3CCC4(CC3)OCCO4)c2)cc1	inconclusive: 23.1 µM [inhibitor, single point]	
CCS(=O)CCSP(=O)(OC)OC (centres undefined)	inactive	
O=C(CCc1nc(C2=CCN(Cc3cccc(Cl)c3)CC2)no1)Nc1ccccc1F	active: 14.6 µM	
CCCNC(=O)N1[C@H]2CC[C@@H]1C(C(=O)OC)=C(c1cc3ccccc3s1)C2	active: 11.6 µM	
COc1cccc(C(=O)C2CCCN(Cc3cccc(C)n3)C2)c1 (centres undefined)	active: 18.4 µM	
C=CCn1c(O)c(C(C)=Nc2ccc(N(CC)CC)cc2)c(=O)[nH]c1=O	active: 20.6 µM	
COC(=O)C1=C(c2ccc(F)cc2OCc2ccccc2)C[C@@H]2CC[C@H]1N2C(=O)NCC1CC1	active: 7.31 µM	
COC(=O)[C@H]1[C@H]2C[C@@H]3c4[nH]c5cc(OC)ccc5c4CCN3C[C@H]2C[C@@H](OC(=O)/C=C/c2cc(OC)c(OC)c(OC)c2)[C@@H]1OC	inconclusive: 18.4 µM [inhibitor, single point]	inconclusive: -31.4% [inhibitor] [at 21.1 µM]
COC(=O)[C@@]12CCCCN1[C@H](c1ccc(-c3ccc(Cl)c(Cl)c3)c(OC)c1)[C@@H]1C(=O)N(C)C(=O)[C@@H]12	active: 11.6 µM	
O=C(Nc1ccc(Br)cc1)c1ccc(F)c(S(=O)(=O)N2CCCc3ccccc32)c1	active: 11.6 µM	
O=C(CF)NC(NC(=S)Nc1cccc([N+](=O)[O-])c1)C(Cl)(Cl)Cl (centres undefined)	active: 20.6 µM	
Cc1nc2ccc(NC(=O)C3COc4ccccc4O3)cc2s1 (centres undefined)	inconclusive: 29.1 µM [inhibitor, single point]	
CCCN1CCc2cccc3c2C1Cc1ccc(O)c(O)c1-3 (centres undefined)	active: 3.66 µM	

SMILES	Potency	activity change, negative = growth inhibition
CCn1nc(-c2cccs2)nc2c(=O)n(C)c(=O)nc1-2	active: 0.58 µM	
c1ccc2c(CNC3CCCCC3)c[nH]c2c1	active: 2.51 µM	
CCC(=NCc1cc(OC)cc(OC)c1)c1c(O)[nH]c(=O)[nH]c1=O	inconclusive: 18.4 µM [inhibitor, single point]	
CN(C)P(=O)(NC(=O)c1cccn1C)N(C)C	inactive	
CC(C)[C@H](N)C(=O)OCC(CO)OCn1cnc2c(=O)[nH]c(N)nc21 (some centres undefined)	active: 13.3 µM	
Cc1ccc(-c2nc(S(=O)(=O)c3ccc(C)cc3)c(SCC(=O)Nc3ccc(F)cc3)o2)cc1	active: 16.4 µM	
CCN(CC)C(=O)Cn1cc(/C=C2\C(=O)NC(=O)N(c3ccccc3F)C2=O)c2ccccc21	inconclusive: 25.9 µM [inhibitor, partial curve, poor fit]	
CCOc1ccc(Cl)cc1CNCCc1ccccc1F	inactive	
COC(=O)CCCNC(=O)CN1CC(c2ccccc2)CC1=O (centres undefined)	inactive	
Nc1cccc2c(N)cccc12	active: 21.7 µM	
CCCC(=O)OCC[N+](C)(C)C	inactive	
Cc1ccc(F)cc1NC(=O)c1ccc(Cn2nc(N3CCN(c4ccccc4)CC3)ccc2=O)o1	inconclusive: 25.9 µM [inhibitor, single point]	
CCc1nc(N2CCNCC2)c(C#N)c2c1CSC(C)(C)C2	inconclusive: 23.1 µM [inhibitor, single point]	
c1ccc(C2CC2)c(OCC2=NCCN2)c1	inconclusive: 35.5 µM [inhibitor, partial curve]	
CC(=O)c1ccc(-c2ccccc2)cc1	inactive	
COC(=O)[C@]12CCC(C)(C)C[C@H]1[C@H]1C(=O)C=C3[C@@]4(C)C=C(C#N)C(=O)C(C)(C)[C@@H]4CC[C@@]3(C)[C@]1(C)CC2	active: 1.19 µM	
Cc1cccc(NC2=NCCCS2)c1	inactive	
Cc1cc(/C=C2/C(=O)NC(=O)N(c3ccccc3)C2=O)c(C)n1-c1ccc(F)cc1	inconclusive: 16.4 µM [inhibitor, single point]	
Cc1cccc(C)c1-n1nnnc1C(CCc1ccccc1)N1CCC2(CC1)C(=O)NCN2c1ccccc1 (centres undefined)	inconclusive: 18.4 µM [inhibitor, single point]	
O=C(CCc1ccccc1)N1Cc2cc(-c3ccccc3)ccc2-n2nncc2C1	inconclusive: 29.1 µM [inhibitor, single point]	
Cn1cccc1C1CCCN1CC(=O)Nc1ccc(C#N)c(Cl)c1 (centres undefined)	inconclusive: 18.4 µM [inhibitor, single point]	
CCn1cc(C=C2C(=O)N(C)C(=O)N(C)C2=O)c2ccccc21	inactive	
CNC(Cc1c[nH]c2ccccc12)C(=O)O (centres undefined)	inconclusive: 29.1 µM [inhibitor, single point]	
O=c1c2ccccc2nc(/C=C/c2ccc(O)cc2)n1-c1cccc(O)c1	inconclusive: 20.6 µM [inhibitor, single point]	
